# Source: article PMC4336329 (PLoS ONE, 2015)
# In all, about 310,000 compounds went through this assay and about 2,200 (0.71%) showed an effect of 50% or more. Effects have a minus sign here. The list shows a part of the results. Where a SMILES comes first, the peptide text is derived from it. [ ]: non-standard residue; d: D form. The star is where a group is joined. ξ: configuration not given here. ξN = NC(=O)CC(N)C(=O)O; Boc = CC(C)(C)OC(=O)*
# Molecular target: human ether-à-go-go-related gene (hERG) potassium channel (human, UniProt Q12809)
# Assay: primary screen, population patch clamp on CHO cells stably expressing hERG
# Chain of human ether-à-go-go-related gene (hERG) potassium channel (Q12809 whole entry, looked up): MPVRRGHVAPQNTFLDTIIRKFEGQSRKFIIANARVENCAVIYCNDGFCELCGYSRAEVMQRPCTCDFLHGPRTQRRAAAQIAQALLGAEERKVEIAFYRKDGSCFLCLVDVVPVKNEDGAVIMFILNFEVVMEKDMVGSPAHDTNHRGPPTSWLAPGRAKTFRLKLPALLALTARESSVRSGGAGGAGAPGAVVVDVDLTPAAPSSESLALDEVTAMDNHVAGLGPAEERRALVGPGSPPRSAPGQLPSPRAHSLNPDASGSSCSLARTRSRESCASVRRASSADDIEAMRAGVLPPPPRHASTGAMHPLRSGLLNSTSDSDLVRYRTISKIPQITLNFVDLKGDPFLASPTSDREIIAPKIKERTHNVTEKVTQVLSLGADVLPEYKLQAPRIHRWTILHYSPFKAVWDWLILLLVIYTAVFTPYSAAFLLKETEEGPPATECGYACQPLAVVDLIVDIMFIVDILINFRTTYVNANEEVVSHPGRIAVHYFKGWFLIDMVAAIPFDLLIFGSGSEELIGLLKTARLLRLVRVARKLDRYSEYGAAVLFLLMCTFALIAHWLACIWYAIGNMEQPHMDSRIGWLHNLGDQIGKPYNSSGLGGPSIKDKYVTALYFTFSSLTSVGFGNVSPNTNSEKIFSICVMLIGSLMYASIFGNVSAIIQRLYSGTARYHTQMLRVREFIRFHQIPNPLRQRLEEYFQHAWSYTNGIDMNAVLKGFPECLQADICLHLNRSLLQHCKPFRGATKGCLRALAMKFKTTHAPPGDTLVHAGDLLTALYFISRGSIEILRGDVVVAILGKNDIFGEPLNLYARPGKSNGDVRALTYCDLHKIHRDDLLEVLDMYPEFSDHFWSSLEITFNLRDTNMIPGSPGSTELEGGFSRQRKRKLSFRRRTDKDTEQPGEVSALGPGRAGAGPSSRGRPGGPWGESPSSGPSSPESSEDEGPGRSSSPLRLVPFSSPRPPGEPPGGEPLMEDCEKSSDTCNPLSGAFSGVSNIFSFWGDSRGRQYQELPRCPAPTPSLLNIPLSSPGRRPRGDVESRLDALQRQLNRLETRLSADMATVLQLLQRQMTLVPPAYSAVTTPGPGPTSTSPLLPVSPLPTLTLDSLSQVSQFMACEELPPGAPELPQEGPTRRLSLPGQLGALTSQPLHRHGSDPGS
row,SMILES,"hERG current change (%, negative = inhibition) at 1uM [%]"
1,Cc1ccc(NC(=O)CSc2ccc3nnc(CCNC(=O)c4ccccc4)n3n2)c(C)c1,-5.53
2,CC1OC(OC2C(Oc3c(-c4ccc(O)cc4)oc4cc(O)cc(O)c4c3=O)OC(COC3O[C@@H](C)[C@H](O)[C@@H](O)C3O)C(O)C2O)C(O)C(O)C1O (stereo partly shown),11.5
3,Cc1nn2c(-c3ccccc3)c(-c3ccccc3)nc2[nH]c1=O,12.6
4,CCOc1ccc(C(=O)Nc2ccc3nc(N4CCN(CC)CC4)cc(C)c3c2)cc1,-10.2
5,OCC1(Cc2ccc(Cl)cc2)CCN(Cc2ccc3nsnc3c2)CC1,-6.01
6,CC1CCCC(C)N1C(=O)COC(=O)C(Cc1ccccc1)NC(=O)c1cccs1 (stereo not shown),11.4
7,Cc1cc2cc(CN(CCCO)S(=O)(=O)c3cccc4nsnc34)c(=O)[nH]c2cc1C,-0.0306
8,COc1ccc(NC(=O)c2ccc(C)cc2)c(OC)c1,-2.85
9,CCOC(=O)c1c(C)nc2sc3c(=O)n(-c4ccc(C)cc4)cnc3c2c1-c1ccc(OC)cc1,13
10,COc1ccc2oc(C)c(C(=O)c3ccc([N+](=O)[O-])cc3)c2c1,11.1
11,CCN(CC)c1ccc(/C=N/N2CCN(c3ccccn3)CC2)cc1,22.6
12,CCN(CC)C(=O)Cn1cc(C(=O)C(=O)NCCc2ccccc2)c2ccccc21,9.27
13,COCc1cc(C)n(CC(=O)NC(C)c2ccccc2)c(=O)c1C#N (stereo not shown),7.54
14,COc1ccc(N2C(=O)C(O)C2c2ccc(C)cc2)cc1 (stereo not shown),10.6
15,Cc1ccc(-n2nc(C)cc2NC(=O)COc2cc(C)cc3oc(=O)c4c(c23)CCC4)cc1,10.1
16,O=C(NNS(=O)(=O)c1ccccc1)c1cccc([N+](=O)[O-])c1,9.02
17,CN1CCN(C(=O)CSc2nc(-c3cccs3)ccc2C#N)CC1,11.3
18,Brc1ccccc1Cn1cnc2ccccc21,7.52
19,O=C(N/N=C/c1ccc(-c2cccc([N+](=O)[O-])c2)o1)[C@H]1C[C@@H]1c1ccccc1,3.49
20,COc1ccc(C(=O)C(CN2CCCC2)c2ccccc2)cc1 (stereo not shown),-2.36
21,COCCn1c(N2CCN(c3ccccc3)CC2)nc2c1c(=O)n(C)c(=O)n2C,3.47
22,CCOc1ccc(NC2C=CS(=O)(=O)C2)cc1 (stereo not shown),6.09

row,SMILES,"hERG current change (%, negative = inhibition) at 1uM [%]"
1,COc1nc(N(C)S(=O)(=O)c2ccc(C)cc2)nc(C)c1Br,16.5
2,NC1=NC(=O)/C(=C\c2cccs2)S1,8.84
3,COc1ccccc1NC(=O)Cn1cnc2c1c(=O)n(C)c(=O)n2C,19.5
4,O=C(/C=C/c1cccc(F)c1)N1CCN(c2ccccn2)CC1,-68.4
5,CC1CCCC(NC(=O)c2cccc(N3CCCC3=O)c2)C1C (stereo not shown),9.61
6,CN(Cc1ccccc1)C(=O)COC(=O)C1CCN(S(=O)(=O)c2cccs2)CC1,7.57
7,CCCCn1c(=O)c(CC(C)=O)nc2ccccc21,15.9
8,CCCC(c1nnnn1Cc1ccc(F)cc1)N1CCN(CC)CC1 (stereo not shown),-19.3
9,CCOc1ccc(C(=O)NCC(=O)OCc2ccc(F)cc2Cl)cc1,2.89
10,O=C(NCCN1CCCCC1)Nc1cccc(F)c1,4.49
11,COc1ccc(CC(=O)N(Cc2ccccc2)C(C)C)cc1,4.46
12,Cc1ccc(OCC(=O)Nc2ccc(Cl)cc2)c(-n2nc3ccccc3n2)c1,6.01
13,O=C(NNC(=O)C1CCCC1)c1cc([N+](=O)[O-])cc([N+](=O)[O-])c1,16.3
14,C[N+]1(CC(=O)OCCCC2CCCCC2)CCCC1.[I-],12.7
15,COc1ccc(C(O)(CC(C)C)C(CN2CCOCC2)c2ccccc2)cc1.Cl (stereo not shown),14.3
16,COc1ccc(CCN(Cc2ccc(C(C)C)cc2)S(=O)(=O)c2ccc(S(=O)(=O)N(C)C)cc2)cc1OC,0.398
17,COC(=O)NC(NC(=S)Nc1ccccc1OC)C(Cl)(Cl)Cl (stereo not shown),1.75
18,Cc1ccccc1Nc1nc(-c2sc(NC(=O)c3ccc([N+](=O)[O-])cc3)nc2C)cs1,13.9
19,CCCCOC(=O)Nc1cccc(Cl)c1C,-0.362
20,CCOC(=O)Cc1csc(NC(=O)c2ccc3ncsc3c2)n1,2.59
21,O=C(Nc1cccc(F)c1)NC1CCN(Cc2ccccc2)CC1,-7.63
22,O=c1/c(=C/c2ccccn2)sc2n1CN(c1ccccc1)CN=2,9.51

row,SMILES,"hERG current change (%, negative = inhibition) at 1uM [%]"
1,Cn1c(-c2ccc3c(c2)OCO3)cnc1NCc1cccc(O)c1.O=C(O)C(=O)O,1.05
2,CC(C)c1cccc(C(C)C)c1NC(=O)c1ccc(OCC(=O)NCc2ccccc2)cc1,-0.595
3,CCN1CCn2c3c(c4cc(C)ccc42)CCCC31 (stereo not shown),-11.6
4,CC1CN(C(=O)COC(=O)c2ccc(Cl)c(N)c2)CC(C)O1 (stereo not shown),6.96
5,COc1ccc(CNC(=O)C2CCN(S(=O)(=O)c3cccnc3)CC2)cc1,25.1
6,O=C(COC(=O)c1ccco1)NC1CCCCC1,16.1
7,CC(=O)c1sc(N/N=C\c2cccc(Br)c2)nc1C,2.03
8,CN(C)c1cccc(C(=O)Nc2nnc(Cc3ccccc3)s2)c1,9.59
9,NC(=O)c1c(N)sc2c1CCCC2,-0.156
10,O=C(O)CCC(=O)N1CCc2cc(S(=O)(=O)Nc3ccc4c(c3)OCCO4)ccc21,12.2
11,CCOC(=O)C1CCCN(c2nc3ccccc3nc2C(C#N)C(=O)OCCOC)C1 (stereo not shown),-2.06
12,COC(=O)c1cn(C(=O)c2ccc(C)cc2C)c2ccccc12,11.4
13,COc1ccc(Br)cc1/C=N/NC(=O)CNC(=O)/C=C/c1ccccc1,10.2
14,CCn1c(O)c(C(c2ccccn2)c2c(O)n(CC)c(=S)[nH]c2=O)c(=O)[nH]c1=S,11.9
15,O=C(COc1nncc2ccccc12)Nc1ccc(F)c(F)c1,12.9
16,CCOC(=O)c1sc(/N=C/c2ccc(O)cc2O)cc1C,13.3
17,CCOC(=O)Cc1cc(=O)n2[nH]c(C)c(C#N)c2n1,14
18,Cc1nc2cc(Cl)c([N+](=O)[O-])cc2s1,2.49
19,CNC(=O)c1c(Cl)cnn1-c1ccc(C)cc1,14.6
20,CCC(=O)Nc1ccccc1-c1nc2ccccc2[nH]c1=O,17.5
21,OC(CSc1c(Cl)cccc1Cl)CN1CCN(c2ccc(F)cc2)CC1 (stereo not shown),-7.19
22,CCCCc1ccc(NC(=O)CSc2nnc(CNC(=O)c3ccco3)o2)cc1,9.76

row,SMILES,"hERG current change (%, negative = inhibition) at 1uM [%]"
1,COc1ccc(CC(=O)NNS(=O)(=O)c2ccccc2[N+](=O)[O-])cc1,17.9
2,CCO.N#CC1=C(N)C(C#N)(C#N)C(c2cccnc2)C2CC(c3ccccc3)CC=C12 (stereo not shown),10.8
3,CN1CCN(C(c2ccc(Cl)cc2)c2cc(Cl)c3cccnc3c2O)CC1 (stereo not shown),14.4
4,Oc1ccccc1-c1nc2ccccc2nc1-c1ccccc1,8.28
5,CCOC(=O)CNC(=O)C(CC(N)=O)NC(=O)OC(C)(C)C (stereo not shown) (Boc-[ξN]-Gly-OEt),19.9
6,O=C(CNC1CCCCC1)NN=C(c1ccccc1)c1ccccc1,-24.4
7,Cc1ncoc1C(=O)Nc1cccc(Cl)c1C,2.1
8,COc1cccc(NC(=O)Nc2cnccn2)c1,4.79
9,Cc1oc(-c2ccccc2)cc1C(=O)Nc1cccc2ccccc12,13.1
10,Cc1c(NC(=O)C(C)OC(=O)c2cccc(S(=O)(=O)N(C)C)c2)c(=O)n(-c2ccccc2)n1C (stereo not shown),16.7
11,Cc1cc(C(=O)N2CCOCC2)n(-c2ccccc2)n1,14
12,CCOC(=O)C1(CC2CCCCO2)CCN(S(=O)(=O)c2ccccc2)CC1 (stereo not shown),14.3
13,CC(=O)NNC(=O)CCn1c2c(c3ccccc31)CCCC2,11.1
14,CN1CCN(C(=O)/C(=C\c2cccs2)NC(=O)c2ccco2)CC1,-65.2
15,O=C(Nc1ccccc1)N(C1=NCCCCS1)c1cccc2ccccc12,5.62
16,Cc1cc(N2CCC(N(C)C3CCCC3)CC2)nc2cc(O)ccc12,10.9
17,COCCN=c1scc(-c2cccs2)n1/N=C/c1ccc(O)c(O)c1O,4.07
18,COc1ccc(OC(C)C(=O)N2CCc3ccccc3C2)cc1 (stereo not shown),3.27
19,O=C(c1ccc(S(=O)(=O)c2cccc(Cl)c2)c([N+](=O)[O-])c1)N1CCN(c2ccccn2)CC1,-0.439
20,CCN1CCN(Cc2ccc(OC)c(OCc3ccccc3)c2)CC1,-5.77
21,COc1ccc2c(c1)C(C)=CC(C)(C)N2C(=O)C(C)N1C(=O)c2ccccc2C1=O (stereo not shown),-0.0641
22,COCCCNC(=O)C(=O)NC1CCCCC1C (stereo not shown),13.9
